The campaign covered roughly 310,000 compounds. About 14,000 (4.5%) showed an effect of 50% or more. Effects have a minus sign here. The list shows a part of the results.
Target: human ether-à-go-go-related gene (hERG) potassium channel (human, UniProt Q12809)
Experiment: primary screen, population patch clamp on CHO cells stably expressing hERG
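Also: peak tail current of the secondary pulse compared with the same well before compound.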

human ether-à-go-go-related gene (hERG) potassium channel, sequence (Q12809 whole entry, looked up): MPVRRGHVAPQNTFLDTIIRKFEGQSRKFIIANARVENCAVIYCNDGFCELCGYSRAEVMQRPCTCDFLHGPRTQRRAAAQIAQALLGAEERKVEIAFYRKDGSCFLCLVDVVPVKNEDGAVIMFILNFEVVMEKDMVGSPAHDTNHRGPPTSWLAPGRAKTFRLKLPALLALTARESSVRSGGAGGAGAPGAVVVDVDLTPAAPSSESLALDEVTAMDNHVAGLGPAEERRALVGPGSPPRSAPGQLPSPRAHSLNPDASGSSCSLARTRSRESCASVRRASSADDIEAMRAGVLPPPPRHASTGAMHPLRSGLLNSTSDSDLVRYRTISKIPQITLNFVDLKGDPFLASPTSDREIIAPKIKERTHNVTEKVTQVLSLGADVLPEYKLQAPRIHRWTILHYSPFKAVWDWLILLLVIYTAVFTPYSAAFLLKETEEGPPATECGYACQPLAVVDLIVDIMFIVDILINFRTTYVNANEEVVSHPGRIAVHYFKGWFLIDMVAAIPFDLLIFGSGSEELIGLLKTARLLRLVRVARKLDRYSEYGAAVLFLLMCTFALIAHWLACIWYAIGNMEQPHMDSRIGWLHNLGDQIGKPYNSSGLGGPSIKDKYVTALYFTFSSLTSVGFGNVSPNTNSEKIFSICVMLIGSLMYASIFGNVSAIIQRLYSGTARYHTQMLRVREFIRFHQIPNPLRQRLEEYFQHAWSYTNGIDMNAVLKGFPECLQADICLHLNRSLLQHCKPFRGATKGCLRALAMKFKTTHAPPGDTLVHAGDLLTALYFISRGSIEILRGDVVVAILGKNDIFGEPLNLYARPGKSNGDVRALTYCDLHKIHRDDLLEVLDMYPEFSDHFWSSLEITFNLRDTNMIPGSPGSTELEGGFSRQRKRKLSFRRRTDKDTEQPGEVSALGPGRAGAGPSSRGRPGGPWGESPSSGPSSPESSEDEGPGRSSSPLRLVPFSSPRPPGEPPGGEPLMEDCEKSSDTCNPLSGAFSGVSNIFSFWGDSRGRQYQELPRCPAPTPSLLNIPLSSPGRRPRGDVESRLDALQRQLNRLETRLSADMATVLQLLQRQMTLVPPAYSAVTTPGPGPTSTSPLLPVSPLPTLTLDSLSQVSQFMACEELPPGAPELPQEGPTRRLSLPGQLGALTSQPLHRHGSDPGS

SMILES	hERG current change (%, negative = inhibition) at 10uM [%]
COc1ccccc1OCC(=O)Nc1cccc(S(=O)(=O)NC2=NCCCCC2)c1	-4.65
COc1ccccc1C(=O)Nc1cc(C)on1	7.07
COCc1nn2c(N)c(C#N)cnc2c1-c1ccccc1	8.24
COc1cc(Cl)ccc1NC(=O)COc1ccccc1C(=O)NN	-15.4
O=C(CNS(=O)(=O)c1ccccc1)N1CCCC1	15.3
Cc1ncc([N+](=O)[O-])n1CCOC(=O)NC(NCc1ccccc1)C(Cl)(Cl)Cl (stereo not drawn)	-15.8
O=C(COC(=O)CCc1c[nH]c2ccccc12)Nc1ccc([N+](=O)[O-])cc1	15.1
CCOC(=O)c1c(N)sc2c(NC(C)=O)cccc12	7.86
O=C(N/N=C/c1ccccc1O)C1CCCC1	8.05
CC(C)CCNC(=O)CC1Nc2c3ccccc3nc(=S)n2C1=O (stereo not drawn)	10.2
CC(C)(C)c1ccc(C2(C)NC(=O)N(CC(=O)c3ccc[nH]3)C2=O)cc1 (stereo not drawn)	-0.164
COc1ccc(-c2nn(C)c(=O)c3ccccc23)cc1NS(C)(=O)=O	-47.3
COc1ccc(/C=N/NC(=O)CNC(=O)c2ccc(S(=O)(=O)N3CCCC3)cc2)c(OC)c1	2.95
CCCCN(C)CCCNC(=O)c1cn(C)c2ccc(S(=O)(=O)N(C)C3CCCCC3)cc2c1=O	-75
COc1ccc(C2CC(c3ccc4ccccc4c3)=NN2C(=O)CN2C(=O)CCC2=O)cc1 (stereo not drawn)	7.37
Cc1cccc(C)c1OCC(=O)NC(Cc1c[nH]c2ccccc12)C(=O)O (stereo not drawn)	23.7
COc1cccc(C(=O)CSc2nnnn2C)c1	4.88
CC1(C)Cc2c(sc3ncn4nc(CCC(=O)O)c(=O)nc4c23)CO1	8.68
N#CCCN(C(=O)COC(=O)c1cccc(S(=O)(=O)N2CCCC2)c1)c1ccc(F)cc1	-26
COCCNC(=O)CNC(=O)c1nn(-c2ccc(OC)c(Cl)c2)c(=O)c2ccccc12	6.48
Cc1cc(C(F)F)n2nc(C(=O)Nc3ccc(S(=O)(=O)N4CCCC4)cc3)nc2n1	4.87
O=P(Nc1ccccc1)(Nc1ccccc1)Oc1ccc(Cl)cc1	-17.7

SMILES	hERG current change (%, negative = inhibition) at 10uM [%]
CCCC[C@@H]1CNC(=S)N1CCc1cccc(F)c1	-0.566
CC1(OC(=O)C2CCCC2)C(=O)C=C2C=C(c3ccsc3)N(CCCCO)C=C2C1=O (stereo not drawn)	1.16
Cn1nc(C(=O)NC(C)(C)C)c2ccccc21	-0.914
CC(NC(=O)CCC(=O)NC(C)C1COc2ccccc2O1)C1COc2ccccc2O1 (stereo not drawn)	-0.222
COc1ccccc1N1CC(C(=O)Nc2cccc(C(=O)O)c2)CC1=O (stereo not drawn)	-6.51
COc1cccc(NC(=O)COC(=O)c2ccccc2C(=O)N2CCN(c3ccccc3)CC2)c1	-11.8
COc1ccc(-c2nn(-c3ccccc3)cc2/C=N/NS(=O)(=O)c2ccccc2)cc1	10.2
CCCCNC(=O)c1cc(-c2ccc3c(c2)OCO3)on1	7.3
O=C(CCN1C(=O)c2ccccc2C1=O)Nc1ccccn1	3.92
CSCCC(C(=O)NC1=NCCS1)N1C(=O)c2ccccc2C1=O (stereo not drawn)	-8.43
Br.COc1ccccc1NS(=O)(=O)c1cc(N2Cc3ccccc3C2=N)ccc1N1CCOCC1	-73.3
COc1ccc(NC(=O)c2cccc(S(=O)(=O)N3CCCC3)c2)cc1OC	-4.78
O=C(COC(=O)CCC(=O)c1ccc(F)cc1)Nc1ccccc1	-2.84
NNC(=O)CCc1nc2ccccc2[nH]1	23.2
CC(=O)c1ccccc1C(=O)N1CCCC(C(=O)c2ccc(C(F)(F)F)cc2)C1 (stereo not drawn)	-8.18
O=C1C(=O)N(Cc2cccnc2)C(c2ccccn2)/C1=C(/O)c1ccc(Br)cc1 (stereo not drawn)	11.4
O=C(c1cnn2ccccc12)N1CCc2ccccc21	0.772
O=C(NCc1nnc(SCC(=O)N2CCCc3ccccc32)o1)c1ccco1	13.2
CCc1cc(=O)oc2c3c(cc(OCC(=O)NCc4ccncc4)c12)OC(C)(C)CC3	-34.4
O=C(CN1CCOCC1)Nc1ccccc1	13.8
COc1cccc(OCc2nnc(SCC(=O)NNC(=O)C3CCCCC3)n2C)c1	24.5
COc1ccc(-c2nc(NC(=O)c3ccc(OCC(=O)Nc4ccc(F)cc4)c(OC)c3)sc2C)cc1	11.7

SMILES	hERG current change (%, negative = inhibition) at 10uM [%]
CC(=O)NS(=O)(=O)c1ccc(NC(=O)/C=C/c2cn(-c3ccccc3)nc2-c2ccccc2)cc1	34
Cc1cc(C)n2nc(C(F)(F)F)c(-c3ccccc3)c2n1	-0.933
CCN1CCN(Cc2nnc(-c3ccc(C)cc3)o2)CC1	1.66
CC1(C)N=C(SCC(=O)Nc2ccc(Cl)cc2)C(c2ccccc2)=N1	-23.9
C=CCNC(=O)COc1ccc(S(=O)(=O)N2CCCC2)cc1	-3.51
O=C(Cc1ccccc1)NNC(=O)c1cnccn1	2.87
C/C(=N/OC(=O)N(C)C)c1ncc(C(F)(F)F)cc1N1CCOCC1	9.39
Cc1ccsc1CNC1C2CC3CC(C2)CC1C3.Cl (stereo not drawn)	-8.11
O=C(Nc1ccc2c(c1)N(Cc1ccccc1)C(=O)c1ccccc1S2)NC1CC1	6.01
Nc1ccc(C(=O)Nc2ccc(OC(F)(F)C(F)F)c(NC(=O)c3ccc(N)cc3)c2)cc1	5.35
COc1ccccc1N1CCN(CCCNc2c(C)c(=O)n(C)c(=O)n2C)CC1	-5.42
CCCSC1=C(C#N)C(c2cccnc2)C(C(=O)OCC)=C(c2ccccc2)N1 (stereo not drawn)	-16.5
Cc1ccc(CNC(=O)c2cc(-c3ccccc3)nn2CC2CC(c3cccnc3)=NO2)cc1 (stereo not drawn)	-69.7
Cc1ccc2cc(CN(Cc3ccco3)C(=O)C3CCCCC3)c(=O)[nH]c2c1C	3.51
C/C=C/c1ccccc1OCc1ccc(C(=O)O)o1	20
COc1ccc(C(=O)N2CCCC(c3nc(-c4cccs4)no3)C2)cc1 (stereo not drawn)	-22.4
O=C(CNC(=O)[C@@H]1Cc2ccccc2CN1)NC1CCCCC1	13.1
CCOc1ccc(NC(=O)C2CSC(c3ccncc3)=N2)cc1 (stereo not drawn)	-22.7
COCCCN1CC(=O)N2Cc3[nH]c4ccccc4c3C[C@H]2C1=O	15.5
COC(=O)c1c(-c2ccco2)csc1NC(=O)C1CC=CCC1C(=O)O (stereo not drawn)	8.18
COc1ccc(CCNC(=O)c2ccc(N(C)S(=O)(=O)c3ccccc3)cc2)cc1	-17.1
CCN(CC)CCNC(=O)C1c2cc(OC)c(OC)cc2C(=O)N2CCc3ccccc3C12 (stereo not drawn)	3.4

SMILES	hERG current change (%, negative = inhibition) at 10uM [%]
CCSc1nc(-c2ccc(OC)cc2)ccc1C#N	1.72
COc1ccc(CCNC(=O)Cc2ccccc2)cc1OC	16.9
O=C(NCCCN1CCN(Cc2ccccc2)CC1)c1nnc(Cc2c(F)cccc2Cl)o1	-63.1
CC(=O)c1cccc(NC(=O)C(C)OC(=O)c2ccc3ncsc3c2)c1 (stereo not drawn)	-21.9
CCCCn1c(SCC(N)=O)nc2ccc(N3CCOCC3)cc2c1=O	-38.7
CCC(C)NC(=O)c1[nH]c(C)c(C(=O)OC)c1C (stereo not drawn)	-18.9
COc1ccc(NC(C)C(=O)N/N=C/c2cc(Br)ccc2OC)cc1 (stereo not drawn)	6.81
CS(=O)(=O)N1N=C(c2ccco2)CC1c1ccc(Cl)cc1 (stereo not drawn)	-7.35
Cc1cc(Nc2cccc(O)c2)c2ccccc2n1.Cl	-64.2
O=C(O)C1C2CCC(O2)C1C(=O)Nc1ccc(OC(F)F)cc1 (stereo not drawn)	9.23
CC(OC(=O)c1c[nH]c2ccccc12)C(=O)N1CCCC1 (stereo not drawn)	9.99
O=C(Nc1c(F)cccc1F)C1CCN(C(=O)c2cccs2)CC1	17.8
COc1cccc(OC)c1C(=O)Nc1ccc(N2CCN(S(C)(=O)=O)CC2)cc1	7.69
Cc1ccc(-n2c(=O)[nH]cc(C(=O)Nc3ccc4c(c3)OCO4)c2=O)cc1C	-5.13
COc1cc(C2Nc3cccc4cccc(c34)N2)cc(OC)c1OC(C)=O	9.54
CCOc1ccc(C(=O)Nc2ccc(CN3CCOCC3)cc2)cc1Cl	-56
CC(OC(=O)CN(C)S(=O)(=O)c1ccc(Cl)cc1)C(=O)Nc1cccc(Cl)c1 (stereo not drawn)	4.29
Cc1ccc(C(=O)NCC(=O)NCC(=O)OCC(=O)c2ccc([N+](=O)[O-])cc2)cc1	4.79
CC1=C(C#N)C(c2ccc3ncccc3c2)C(C#N)=C(C)N1	7.71
CCOc1ccc(C(=O)N2CCN=C2SC)cc1OCC	10.9
COc1ccc(-n2c(=S)[nH]c3c(oc4ccccc43)c2=O)cc1	10.5
